Consider one molecule from paper PMC5290234, “Influence of Escherichia coli chaperone DnaK on protein immunogenicity” (Immunology, 2016).

This test has as its target T1, recombinant E. coli DnaK (E. coli, UniProt P0A6Y8).
T1 construct: Chaperone protein DnaK (HSP70) of Escherichia coli, recombinant; Commercial recombinant protein; also called 70 000 MW E. coli chaperone protein DnaK; HSP DnaK; source: bought: Enzo Life Sciences
In words: co-sedimentation; 0.5 ul DnaK (1 mg/ml) added to 500 ul heat-aggregated mouse albumin (60 degrees 24 hr at 5 mg/ml, diluted to 1 mg/ml, PBS), ultracentrifugation at 802 000 g for 30 min; pellet and supernatant blotted with anti-DnaK. As to conditions: both partners purified.

B1: mouse albumin (natural protein)
chain: not shown
notes: Serum albumin, mouse; Used as monomer or as heat aggregate (5 mg/ml, 60 degrees, 24 hr, about 50 nm, about 50% loss of secondary structure); also called mouse serum albumin; source: bought: MP Biomedicals (lyophilized)
As for B1, the binding result is reported as “binds”.
